± gives the standard deviation of the averaged measurements. The list shows a part of the results.
These sequences were tested on PfAP2-LT AP2 domain (GST-tagged) (assay: gcPBM binding intensity (ln(normalized median fluorescence intensity)); higher = stronger DNA binding).
How it was run: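 Each value is the highest Masliner-normalised natural-log median intensity across replicate spots of either orientation of a probe. The probes were primer-extended double-stranded 36-bp intergenic genomic sequences on an Agilent 4 × 180k array, alongside negative controls, exposed for 1 h to GST-tagged P. falciparum DNA-binding domains expressed in E. coli. Bound protein was picked up with Alexa488 anti-GST antibody and scanned at 488 nm.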

Sequence | gcPBM binding intensity (ln)
GTTAAATAATATATATGTACATACATAAGTGTTACT [XGTACX_site4778] | 8.86 ± 0.4
TTGCCCATTTAATTAACACACAAATATTTATATTCT [CACACA_site738] | 8.96 ± 0.39
GATATTCATAGAAACACACATACAAATTATGTATAT [CACACA_site144] | 8.94 ± 0.35
TAATTGTACGCCAATACACACAGAATTAAAATGTAG [CACACA_site4234] | 9.04 ± 0.38
TTTTTAAAGTTTTATACACACACCAAAATTATTCTA [CACACA_site600] | 8.81 ± 0.39
AAAAAAATACCATTCACACATATTCTTTTATTATTT [CACACA_site5113] | 8.66 ± 0.49
AAAAAAAAAAAGTTTACACACATTAATTTTACATAT [CACACA_site834] | 8.93 ± 0.48
TTTCATAACAAAAAAGTGCAAAATAGCACGAACATT [GTGCAC_site9703] | 8.93 ± 0.4
AAAAATTATATACATCATAGAATTAACATTTTAAAT [GTGCAC_negctrl_site369] | 8.53 ± 0.47
AGAAAAAGGAGAAAAAGTACAAAACGGAGTAGTATT [XGTACX_site3858] | 9.2 ± 0.5
GTAGCAATAAACATATGTACATATATATATTTTTTC [XGTACX_site5814] | 8.87 ± 0.42
AAATCAACGATCTATACATGCATATAATATATACAT [TGCATGCA_site25] | 8.94 ± 0.36
TAATAATACCCTTGCTGTACCAAATAAAGTTGAATA [XGTACX_site6922] | 8.56 ± 0.36
ACAAACAAAGAAAGAACACACATACACAATATACCT [CACACA_site5566] | 9.54 ± 0.39
ATATTTAAATAATATTCACACACAAAATTATATTTT [CACACA_site7955] | 9.04 ± 0.52
CATATAAAAATATATGCACACAAATAAAAAATTATA [CACACA_site9210] | 8.97 ± 0.47
ATTTCTCAATCGTAATGTACAAAAAAAAGGGAAAAG [XGTACX_site2781] | 8.7 ± 0.45
TATGAGGAAACGTGGTGTACTTTTTTTTAATAAAAA [XGTACX_site1351] | 8.31 ± 0.58
ATAAATATAATAATCATACACACCAAAGAGAATATT [CACACA_site1888] | 9.08 ± 0.38
AAAGTTATTATGCAATAATTATGATAATTAATATAT [TGCATGCA_negctrl_site316] | 8.64 ± 0.45
ATGACTTACATATATAGTACTTTGTTTTGGAGTTGC [XGTACX_site94] | 8.93 ± 0.42
TAATAAAATATGTACGTGCACATAATTATACTAAAA | 8.96 ± 0.43

Sequence | gcPBM binding intensity (ln)
TGATACTTTTTTTGTAGTACTCCTAAAATTATAAAA [XGTACX_site4340] | 8.34 ± 0.4
TTTTTTTTATTTTAATGTACATTTTTTATTTGTTAT [XGTACX_site7189] | 8.93 ± 0.62
ATATATATATTATTTCGTACATAATTATTTGCCTTA [XGTACX_site350] | 8.78 ± 0.35
AAAAAAAAAAAAAATTGTACAAAAAAAATAAATAAA [XGTACX_site6816] | 8.62 ± 0.81
AAAAAAAAAAAAGAAACACACATATTTATATTTATA [CACACA_site6213] | 8.59 ± 0.48
TTATTTTAATAACCTACACACATTTTGTATATTTTA [CACACA_site4000] | 8.9 ± 0.44
AAATGATGGAAAAAATAAATTTTTGTACAAAAATTA [CACACA_negctrl_site814] | 8.51 ± 0.42
TTATAAATATTCTTGGGTACTTAAGATGATATGTAA [XGTACX_site5496] | 8.44 ± 0.39
AAAAAAAAAAAGAAAGCACACAATACATATGTATAA [CACACA_site1137] | 8.91 ± 0.49
ATATATATCAGACACACACACATGTTTTAAAACTAT [CACACA_site77] | 9.49 ± 0.34
TAAATTTTTAAATACACACATACACCCATACAGACA [CACACA_site548] | 9.28 ± 0.34
TTTTTTTTGTGGTGTCGTACATATGTTTGTTTTAAG [XGTACX_site1759] | 8.91 ± 0.44
ACATATATATATATATATATATATATATAATATTTA [CACACA_negctrl_site633] | 9.37 ± 0.33
ATTATGCTACAAGGAGAACACACAATTGCCACTTTT [CACACA_site8673] | 9.1 ± 0.46
GGTGATAATAAGCATACACACACACCCAAAAAAAAA [CACACA_site8137] | 9.59 ± 0.35
CCACGAGAATATATAGTGCATAATAATTTTTTTTTG | 8.65 ± 0.54
TTTAAAAAGATATATACACACATATAAATAAATATA [CACACA_site6436] | 8.88 ± 0.43
ACACATACACATTAGGTGCATATATTTCAATATTAC [GTGCAC_site9423] | 9.07 ± 0.39
AGCCTCGGGGTCATATATATATATATATATATATAT [CACACA_negctrl_site512] | 10.35 ± 0.05
CCACGTATAATATGTACACACACATATATACAAAAA [CACACA_site8208] | 9.47 ± 0.45
ATTATATTTTTAAGTACACACATATATATATATATA [CACACA_site5925] | 9.46 ± 0.19
ATATTAATTCGTTTTGTACACACATAATGAATAATT [CACACA_site8701] | 9.04 ± 0.44
